# PMC4336329 (PLoS ONE, 2015)
# Screen size: about 310,000 compounds; about 14,000 (4.5%) showed an effect of 50% or more. Effects have a minus sign here. Some of the results follow.
# Target: human ether-à-go-go-related gene (hERG) potassium channel (human, UniProt Q12809)
# Experiment: primary screen, population patch clamp on CHO cells stably expressing hERG
# 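Note: peak tail current of the secondary pulse compared with the same well before compound.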
# Chain of human ether-à-go-go-related gene (hERG) potassium channel (Q12809 whole entry, looked up): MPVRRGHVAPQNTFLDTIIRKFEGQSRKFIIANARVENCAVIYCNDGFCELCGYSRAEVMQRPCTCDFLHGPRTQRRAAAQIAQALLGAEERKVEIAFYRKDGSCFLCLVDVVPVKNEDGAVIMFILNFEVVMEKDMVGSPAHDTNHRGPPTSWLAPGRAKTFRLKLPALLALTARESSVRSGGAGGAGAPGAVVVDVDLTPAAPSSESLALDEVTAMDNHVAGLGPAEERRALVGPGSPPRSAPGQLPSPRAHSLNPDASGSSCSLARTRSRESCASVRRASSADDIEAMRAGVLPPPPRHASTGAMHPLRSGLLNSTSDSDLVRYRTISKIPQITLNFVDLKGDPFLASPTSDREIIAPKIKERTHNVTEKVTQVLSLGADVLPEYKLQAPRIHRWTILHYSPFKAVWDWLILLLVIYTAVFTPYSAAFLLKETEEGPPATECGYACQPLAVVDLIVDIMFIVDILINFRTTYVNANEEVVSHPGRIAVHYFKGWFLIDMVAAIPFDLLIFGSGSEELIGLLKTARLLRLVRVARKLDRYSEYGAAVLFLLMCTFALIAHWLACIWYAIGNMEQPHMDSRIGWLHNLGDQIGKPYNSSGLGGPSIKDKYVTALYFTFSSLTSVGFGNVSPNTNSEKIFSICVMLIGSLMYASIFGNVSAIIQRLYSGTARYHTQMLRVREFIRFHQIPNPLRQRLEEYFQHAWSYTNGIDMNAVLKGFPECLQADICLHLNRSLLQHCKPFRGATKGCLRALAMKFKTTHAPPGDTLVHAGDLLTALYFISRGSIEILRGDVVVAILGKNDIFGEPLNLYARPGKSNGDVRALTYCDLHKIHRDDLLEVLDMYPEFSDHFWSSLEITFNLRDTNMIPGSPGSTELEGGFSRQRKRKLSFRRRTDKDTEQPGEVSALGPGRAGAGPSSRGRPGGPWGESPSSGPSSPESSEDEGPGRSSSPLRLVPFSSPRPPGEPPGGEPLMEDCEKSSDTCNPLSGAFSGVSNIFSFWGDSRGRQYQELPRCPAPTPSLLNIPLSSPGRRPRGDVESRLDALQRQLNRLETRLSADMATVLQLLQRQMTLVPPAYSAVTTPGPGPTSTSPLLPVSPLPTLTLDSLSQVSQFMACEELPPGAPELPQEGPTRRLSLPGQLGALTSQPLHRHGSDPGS
row,Structure (SMILES),"hERG current change (%, negative = inhibition) at 10uM [%]"
1,CN(C)CCCN(C(=O)c1ccco1)c1nc2c(F)cccc2s1.Cl,-73.2
2,O=C(Nc1ncccc1O)c1ccc(S(=O)(=O)N2CCCC2)cc1,4.44
3,CCOc1cccc(-c2nn3c(-c4cc(C)[nH]n4)nnc3s2)c1,-58.2
4,CN(Cc1ccccn1)Cc1nc(Cc2ccccc2Cl)no1,-40.4
5,COc1cccc(SCc2noc(C(=O)NCC3CC3)c2C(=O)NCC2CC2)c1,-43.5
6,COCc1ccc(C(=O)N(C)CC2CCCN(CCc3ccccc3F)C2)o1 (stereo not drawn),-41
7,c1nc(NC2CCCCC2)c2[nH]cnc2n1,-3.86
8,COc1ccc(N(CC(=O)NCCSc2ccccn2)S(C)(=O)=O)cc1Cl,-8.86
9,O=C(Cc1ccccc1)c1ccc(Cl)cc1,14.7
10,CCn1c(CNC(=O)c2ccco2)nnc1SCC(=O)c1ccc(F)cc1,9.43
11,COc1ccc(C(c2nnnn2Cc2ccccc2)N2CCN(c3nc4ccccc4s3)CC2)cc1OC.Cl (stereo not drawn),-58.4
12,Cc1ccc(NC(=S)NNC(=O)c2nn(C)c(C)c2Cl)cc1,8.07
13,O=C(O)Cc1ccc(NC(=O)COc2ccc3ccccc3c2)cc1,8.25
14,COc1cc(C(=O)N/C(=C\c2cn(C)c3ccccc23)C(=O)NCCCn2ccnc2)cc(OC)c1OC,11
15,CCCCOc1ccc(-c2c(C#N)c(N)[nH]c(=S)c2C#N)cc1,15.8
16,C=CCN1C(=O)C2(NC(=O)c3ccccc3N2)c2ccccc21 (stereo not drawn),13.9
17,Cc1cccc(C)c1NC1=NCCCCS1,-5.62
18,CN(Cc1nc2ccccc2c(=O)[nH]1)CC(O)COCc1ccco1 (stereo not drawn),-13.9
19,Cc1ccc(C2C(=O)N(C3CCC(C)CC3)CC(=O)N2C2CC2)cc1 (stereo not drawn),-24.6

row,Structure (SMILES),"hERG current change (%, negative = inhibition) at 10uM [%]"
1,CCOC(=O)N1CCN(C(c2ccc(F)cc2)c2sc3nc(C)nn3c2O)CC1 (stereo not drawn),-15.1
2,COc1ccccc1OCCn1ccnc1,20
3,CC(=O)c1cccc(NC(=O)c2ccncc2)c1,-8.77
4,COc1cccc(NC(=S)N(Cc2ccccn2)Cc2ccccc2Cl)c1,5.73
5,Cc1ccc(CNC(=O)C2CN(S(C)(=O)=O)c3cc(Cl)ccc3O2)cc1 (stereo not drawn),-11
6,O=C(CCNC(=O)c1ccc(Br)cc1)NNC(=O)c1ccccc1O,14
7,CCCSC1=C(C#N)C(c2ccccc2C)C(C(=O)OC)C(=O)N1 (stereo not drawn),-6.56
8,CCOc1ccc(NC(=O)CN2C(=O)NC(CCSC)C2=O)cc1 (stereo not drawn),9.3
9,Oc1ccc(C[C@H]2CNCCN2CC2CCCCC2)cc1,-7.3
10,Cc1ccc(Cn2nnc3c(=O)[nH]c(C4CCN(C(=O)c5cccs5)CC4)nc32)cc1,-33
11,OC(C#CCN1CCCC1)(c1ccccc1)c1cccc(F)c1 (stereo not drawn),-16.7
12,COc1cccc(CN2CCC(n3nccc3NC(=O)CCOc3ccccc3)CC2)c1O,-61.5
13,CCCC(NS(=O)(=O)c1ccc(Br)cc1)C(=O)O (stereo not drawn),-9.92
14,C[C@H](/C=C/[C@@]1(O)[C@H](C)C[C@H](O)CC1(C)C)O[C@@H]1O[C@H](CO)[C@@H](O)[C@H](O)[C@H]1O,18
15,NC(=O)C1=C[C@H](c2ccccc2)C[C@H](OCc2ccc(CO)cc2)O1,-0.899
16,CN(Cc1cccc(F)c1)CC(O)COCc1ccccc1Cl (stereo not drawn),-34.8
17,CCOC(=O)N1CCN(Cc2nc3c(c(=O)n(C)c(=O)n3C)n2CCCc2ccccc2)CC1,-35.7
18,O=C1COCCOCCOCCOCC(=O)NCCN1,19.8
19,COc1ccc(Nc2nc(C)nc3c2oc2ccccc23)c(OC)c1,3.49

row,Structure (SMILES),"hERG current change (%, negative = inhibition) at 10uM [%]"
1,Cc1ccc2sc(N(CCN(C)C)C(=O)/C=C/c3cccs3)nc2c1C.Cl,11.8
2,Clc1ccccc1CN(Cc1ccccc1)c1ncnc2nc[nH]c12,16.6
3,CCc1ccc(NC(=O)c2ccccc2SC)cc1,-10.5
4,COc1cccc(C(=O)Nc2cccc(OCC(=O)O)c2)c1,3.97
5,CN(C(=S)Nc1ccc(Oc2ccccc2)cc1)c1ccc(O)cc1,-6.93
6,COc1ccc(N2CCN(C(=O)COC(=O)c3ccc(Cl)nc3)CC2)cc1,6.01
7,COc1ccc(OC)c(-c2csc(N(CC3CCCO3)C(=O)Cc3ccccc3)n2)c1 (stereo not drawn),18.2
8,O=C(NCc1cccs1)c1ccc(N2CCCCC2)nc1,-6.3
9,O=C(c1cc(S(=O)(=O)N2CCCCC2)ccc1N1CCOCC1)N1CCN(Cc2ccccc2)CC1,3.27
10,COc1ccc2nc3sc(C(=O)NCCN4CCc5ccccc5C4)cc3cc2c1,-49.2
11,Cc1ccc(-n2nc3c(=O)n(CCCC(=O)NCc4ccc(Cl)cc4)nc(C)c3c2C)cc1,4.82
12,CC(C)c1ccc(C(=O)NNC(=O)C2C3CCC(C3)C2C(=O)O)cc1 (stereo not drawn),-12.6
13,Cc1ccc(NC(=O)CS(=O)CC(=O)NCC2OCCc3ccccc32)c(C)c1 (stereo not drawn),9.09
14,COc1ccc(C2=NS(=O)(=O)N(C)C(C(=O)Nc3cc(C)ccc3O)=C2)cc1OC,-11.6
15,O=C(CSc1nnnn1-c1cccc2c1CCCC2)N1CCCCC1,-26.5
16,CN(C)S(=O)(=O)c1ccc(N2CCCC2)c(C(=O)Nc2ccccc2Br)c1,-58.3
17,COc1ccc(NC(=O)c2ccc3[nH]c(C)c(C)c3c2)cc1,15.4
18,O=C(NCc1cn2ccccc2n1)c1ccc2c(c1)OCO2,11.5
19,CS(=O)(=O)N(CC(=O)N/N=C/c1cc2c(cc1Br)OCO2)c1ccccc1Br,-5.31
